Test results: PubChem BioAssay AID463173 (ICCB-Longwood Screening Facility, Harvard Medical School, 2010)
The campaign covered roughly 52,000 compounds. About 4,300 (8.3%) were called active. Cut-off read from the data, not from the text of the source: active = survival mostly below about 52% (no sharp cut-off); inactive = mostly above about 56%. This is one part of the list.

test system: DeltatarO mutant; assay: S. aureus survival, RN4220 and DeltatarO strains – OD600, teichoic acid synthesis inhibitors, primary screen (AID 463173); conditions: S. aureus RN4220 wild type/DeltatarO growth, OD600, 18 h, stronger effect = lower value, screened at 18.75 µg/mL (by protocol)

SMILES | survival
Cc1ccc(S(=O)(=O)C(CNC(=O)c2ccccc2F)c2cccs2)cc1 (stereo not drawn) | inactive: 77%
CCOC(=O)c1c(NC(=O)c2cc(C(C)C)on2)sc(C)c1C | inactive: 49%
COc1ccc(-c2cc(C(F)(F)F)n3nc(C(=O)NCC45CC6CC(CC(C6)C4)C5)cc3n2)cc1 | active: 29%
O=C(COc1ccccc1)N(Cc1cccnc1)c1nc2ccc(F)cc2s1 | inactive: 83%
CCOc1cc(-c2nc(-c3ccc(Br)cc3)no2)cc(OCC)c1OCC | inactive: 118%
COCCCNC(=O)c1ccc2c(=O)n(Cc3ccc(OC)cc3)c(=O)[nH]c2c1 | inactive: 60%
Cc1ccc(-c2ccc(=O)n(CC(=O)Nc3cccc(C#N)c3)n2)cc1 | inactive: 112%
CNC(=O)C1CCC(Cn2c(=O)c3sccc3n(CC(=O)NCc3ccc(F)cc3)c2=O)CC1 (stereo not drawn) | inactive: 73%
O=C(C1CCCN(S(=O)(=O)c2ccc(Br)s2)C1)N1CCN(c2ccccc2)CC1 (stereo not drawn) | inactive: 85%
CCOc1ccc(-c2nc3c(c(SCC(=O)N4CCCCC4)n2)Cc2ccccc2O3)cc1 | inactive: 69%
COc1ccc(NC(=O)c2ccc3c(=O)n4nc(Nc5cccc(Cl)c5C)sc4nc3c2)cc1 | inactive: 67%
Cc1c(C(=O)N2CCCCC2)sc(NC(=O)C(C)C)c1C#N | inactive: 94%
CC(=O)N1CCCc2cc(S(=O)(=O)N3CCCC(C(=O)Nc4cc(Cl)ccc4C)C3)ccc21 (stereo not drawn) | inactive: 124%
CCc1nnc(NC(=O)C2CCN(S(=O)(=O)Cc3ccccc3)CC2)s1 | inactive: 89%
C=Cc1ccc(Cn2c(C(=O)O)c(CNCc3ccccc3)c3ccc(C)cc32)cc1 | inactive: 120%
CC1=C(C(=O)Nc2cccnc2)C(c2ccccc2)n2nc(-c3ccc(O)cc3)nc2N1 (stereo not drawn) | inactive: 79%
Cc1ccc(C2CCN(C(=O)c3cnn(-c4ccc(C)cc4)c3C3CCN(C(=O)OC(C)(C)C)CC3)C2)cc1 (stereo not drawn) | inactive: 105%
CC(=O)Nc1ccc(NC(=O)c2oc3ccc4c(c3c2C)C(=O)CC(C)(C)O4)cc1 | inactive: 75%
O=c1c(N2CCc3ccccc3C2)csc2ccccc12 | inactive: 78%
O=C(NCCc1ccccc1)c1ccc2c(c1)N(Cc1ccccc1F)C(=O)c1ccccc1S2=O (stereo not drawn) | inactive: 74%
Cc1c(Cl)cccc1NC(=O)c1ncn(-c2ccccc2)n1 | inactive: 90%
COc1cccc(NC(=O)CC(C)S(=O)(=O)c2ccc3c(c2)NC(=O)CO3)c1 (stereo not drawn) | inactive: 115%

SMILES | survival
Cc1ccc2cc(CN(CC3CCCO3)C(=O)C3CCC3)c3nnnn3c2c1 (stereo not drawn) | inactive: 95%
O=C(N1CCCC1)N1c2ccccc2C=Cc2ccccc21 | inactive: 106%
Cc1ccc(-c2csc(=Nc3ccc(F)cc3)n2Cc2ccc3c(c2)OCO3)cc1C | inactive: 80%
CCOc1ccccc1NS(=O)(=O)c1ccc(-c2cnc(C3CC3)o2)cc1 | inactive: 74%
COc1cc(OC)cc(C(=O)Nc2ccc(S(=O)(=O)Nc3ncccn3)cc2)c1 | inactive: 82%
Cc1nc2nncn2c(NCc2ccc(F)cc2)c1C | inactive: 84%
O=C(Nc1nnc(S(=O)(=O)Nc2ccccc2)s1)c1ccccc1Cl | inactive: 52%
CCc1noc(-c2ccc(N3CCCCC3C)c([N+](=O)[O-])c2)n1 (stereo not drawn) | inactive: 114%
O=C(NCc1ccc2c(c1)CCN2C(=O)c1ccc(Cl)cc1)c1cccc(F)c1 | inactive: 61%
Cc1ccc(NC(=O)CCS(=O)(=O)c2cc3c4c(c2)CCN4C(=O)CC3)c(C)c1 | inactive: 88%
Cc1cccc(C(=O)Nc2nnc(S(=O)(=O)N(C)Cc3ccco3)s2)c1 | active: 25%
CC1CCCN(c2ncccc2C(=O)NCC2CCCO2)C1 (stereo not drawn) | inactive: 85%
COc1ccc(CCNC(=O)CSc2nc(-c3ccc(F)cc3)cc(C(F)(F)F)n2)cc1OC | inactive: 77%
Cc1nn(-c2ccccc2)c2sc(C(=O)Nc3ccccc3Br)cc12 | active: 9%
Cc1ccc(NC(=O)CN2C(=O)C3(SCC(=O)N3c3cccc(Cl)c3)c3ccccc32)cc1C (stereo not drawn) | inactive: 78%
Cc1ccc(NS(=O)(=O)c2ccc3c(c2)CCCN3C(=O)C2CCC2)cc1Cl | inactive: 107%
Nc1c(C(=O)Nc2ccc(C(=O)O)cc2)sc2nc3c(cc12)CCCC3 | active: 42%
Cc1ccc(-c2nc3c(c(SCC(=O)Nc4ccccc4Cl)n2)Cc2c(CO)cnc(C)c2O3)cc1 | active: 46%
CCOC(=O)c1c(S(=O)(=O)NCC(=O)NCc2cccc(C)c2)c(C)n(C)c1C | inactive: 84%
Cc1ccc(CS(=O)(=O)c2ncc(Cl)c(C(=O)Nc3nc4ccc(F)cc4s3)n2)cc1 | active: 9%
CCC(Oc1ccccc1)C(=O)Nc1cc(-c2ccccc2OC)nn1-c1ccccc1 (stereo not drawn) | inactive: 75%
Cc1cc(Cl)nc(-c2ccccc2)n1 | inactive: 91%

SMILES | survival
O=C(N/N=C/c1cn(-c2ccccc2)nc1-c1ccccc1)c1ccco1 | inactive: 77%
COC(=O)CN1C(=O)c2ccccc2NC1c1ccc(OC)cc1 (stereo not drawn) | inactive: 78%
CC1CCC(NC(=O)c2ccc3c(c2)N(Cc2ccccc2F)C(=O)c2ccccc2S3=O)CC1 (stereo not drawn) | inactive: 80%
CCOc1ccc(CCNC(=O)Cn2ncn3c(cc4sc(C)cc43)c2=O)cc1OCC | inactive: 71%
COc1ccc2c(c1)sc1ncc(C(=O)NCc3ccc(Cl)cc3)c(=O)n12 | inactive: 58%
CCN1CCN(c2oc(/C=C/c3ccc(OC)c(OC)c3)nc2C#N)CC1 | inactive: 66%
Clc1ccc(-c2cn3ncsc3n2)cc1 | inactive: 66%
COc1ccc(-n2cc(C(=O)OCc3ccc(F)c(F)c3)c3ccccc3c2=O)cc1 | inactive: 98%
CCc1ccc(NS(=O)(=O)c2ccc3[nH]cc(C(=O)NCCc4cccc(C)c4)c(=O)c3c2)cc1 | inactive: 67%
CCCN1C2CCCC1CC(NC(=O)c1cc(OC)c(OC)c(OC)c1)C2 (stereo not drawn) | inactive: 97%
Cc1ccc(OC(=O)c2cc(-c3ccc(Cl)cc3)on2)c(C)c1 | inactive: 92%
Cc1cccc(N2CCN(C(=O)CCc3c(C)nc4c(c3C)c(=O)n(C)c(=O)n4C)CC2)c1C | inactive: 93%
COc1ccc(C2C(=O)N(C3CCCCC3)CC(=O)N2CCC2=CCCCC2)cc1 (stereo not drawn) | inactive: 88%
O=C(NC1(C(F)(F)F)C(=O)Nc2c1c(=O)[nH]c(=O)n2-c1ccc(F)cc1)c1ccccc1 (stereo not drawn) | inactive: 80%
CCOc1ccc(-n2c(=O)c3sc4ccccc4c3n(Cc3cccc(C)c3)c2=O)cc1 | inactive: 127%
CCOC(=O)Cc1nnc2c(Nc3cc(C)ccc3C)nc3nonc3n12 | inactive: 101%
COc1ccc(NC(=O)Cn2c3ncccc3c(=O)n2-c2ccc(C)c(C)c2)c(OC)c1 | inactive: 107%
O=S(=O)(Nc1ccc2nc(-c3ccc(F)cc3)oc2c1)c1ccccc1 | active: 32%
CCOCCCNC(=O)C(c1ccc(OC)cc1)N(Cc1ccc2c(c1)OCO2)C(=O)c1ccc(NC(C)=O)cc1 (stereo not drawn) | inactive: 50%
CCCCc1nn2c(=O)cc(COC(=O)c3ccc(NC(=O)c4ccccc4Cl)cc3)nc2s1 | inactive: 89%
COc1cccc(CNC(=O)C(NS(=O)(=O)c2cccs2)C(C)C)c1 (stereo not drawn) | inactive: 80%
COc1cccc(CNC(=O)c2ccc3nc(N4CCCCC4)sc3c2)c1OC | inactive: 50%

SMILES | survival
Cc1ccc(CN2CCSc3ccc(C(=O)N4CCN(c5ccc(Cl)cc5)CC4)cc32)cc1 | inactive: 72%
CCCCN1C(=O)c2[nH]nc(-c3ccccc3O)c2C1c1cc(Br)c(O)c(OC)c1 (stereo not drawn) | active: 2%
O=c1c2cccnc2n(Cc2ccccc2F)c(=O)n1Cc1ccc(F)cc1 | inactive: 78%
Cc1ccc(C)c2[nH]c(=O)c(C3NC(=O)c4ccccc4N3)cc12 (stereo not drawn) | inactive: 86%
Cc1cccc(C(=O)Nc2ccc3oc(-c4cccc5c(Br)cccc45)nc3c2)c1 | inactive: 67%
COc1ccc2c(c1)CC(C(=O)NCc1ccc(F)cc1)CO2 (stereo not drawn) | inactive: 73%
COc1ccc(CCNCc2c(C(=O)O)c(C)n(Cc3c(F)cccc3Cl)c2C)cc1OC | inactive: 121%
Cc1cc(OCC(=O)Nc2ccc(C(=O)OC3CCCCC3)cc2)cc(C)c1Cl | inactive: 50%
CCc1ccc(NC(=O)C2CCN(c3nc(-c4ccc(OC)cc4)no3)CC2)cc1 | inactive: 84%
CCOc1ccc2nc(N3CCN(C(=O)c4ccc5c(c4)CCCC5)CC3)sc2c1 | inactive: 65%
Cn1c(=O)[nH]c(=O)c2c1nc(N1CCCC1)n2CCSc1ncccn1 | inactive: 73%
Cc1ccc2[nH]c(=O)c3cc(C(=O)N(C)c4ccc(Br)cc4)sc3c2c1 | inactive: 68%
CC(=O)Nc1cc(C(=O)NCc2ccccc2Cl)ccc1Sc1ccc(F)cc1 | inactive: 94%
Cc1cc(C)cc(NC(=O)c2cc(S(=O)(=O)NCCC3=CCCCC3)ccc2F)c1 | inactive: 67%
Cc1ccc(NC(=O)c2cc(S(=O)(=O)N3CCCCC3)c[nH]2)cc1N(C)C | inactive: 94%
CCCS(=O)(=O)c1nc(S(=O)(=O)c2ccc(C)cc2)c(N(CC)CC)s1 | inactive: 112%
CCOC(=O)c1ccc(NC(=O)CSc2c(C(C)C)cnc3c2c(=O)n(C)c(=O)n3C)cc1 | inactive: 107%
Cc1ccc(-n2nc(C)c3nc(CCC(=O)Nc4cccc(C)c4C)c(=O)n(C)c32)cc1 | inactive: 92%
Cc1cc(C)c2c(CC(=O)Nc3ccc(F)cc3)coc2c1 | inactive: 54%
CC(C)OC(=O)c1ccc2c(c1)no[n+]2[O-] | inactive: 98%
COc1ccc(CNC(=O)Cn2nc3c(cc2=O)CCCC3)cc1 | active: 46%
Cc1cccc(N2C(=O)N(Cc3cc(=O)n4ccccc4n3)c3ccccc3S2(=O)=O)c1 | inactive: 97%
